{
  "source": "PubChem BioAssay AID463173",
  "about": "(ICCB-Longwood Screening Facility, Harvard Medical School, 2010)",
  "note": "The campaign covered roughly 52,000 compounds. About 1,700 (3.3%) were called active. Rule as the data show it: active = survival mostly below about 52% (no sharp cut-off); inactive = mostly above about 56%. This is one part of the list.",
  "data": [
    {"system": "Wild type", "assay": "growth inhibition of S. aureus wild type versus tarO mutant, primary screen, teichoic acid synthesis inhibitors, RN4220, OD600 (AID 463173)", "details": "S. aureus RN4220 wild type/DeltatarO growth, OD600, 18 h, active compounds read low, screened at 18.75 µg/mL (by protocol)", "values": [
      {"smiles": "COc1ccc(OC)c(Nc2sc(C(=O)c3ccccc3)c(N)c2S(=O)(=O)c2ccccc2)c1", "survival": "inactive: 86%"},
      {"smiles": "Cc1cccc(N2CCN(S(=O)(=O)c3cc(C(=O)Nc4ccc(Oc5ccccc5)cc4)ccc3F)CC2)c1C", "survival": "inactive: 83%"},
      {"smiles": "O=c1oc2ccccc2c(N2CCN(c3ccc(F)cc3)CC2)c1CN1CCCC1", "survival": "inactive: 78%"},
      {"smiles": "CC(C(=O)Nc1ccc(OC(F)(F)F)cc1)N1Cc2ccccc2C1=O", "note": "(stereo unspecified)", "survival": "active: -3%"},
      {"smiles": "Cc1oc(-c2ccccc2F)nc1CN1CCC(C(=O)NCCc2ccccc2)CC1", "survival": "inactive: 86%"},
      {"smiles": "CCCCn1cc(S(=O)(=O)c2cc(C)ccc2C)c(=O)c2cc(F)c(F)cc21", "survival": "inactive: 83%"},
      {"smiles": "CCc1nn2c(=O)cc(COC(=O)c3ccccc3NC(=O)COc3ccc(C)c(C)c3)nc2s1", "survival": "inactive: 82%"},
      {"smiles": "COc1ccc(CNC(=O)C(C)n2nc(C)c3c(C)n(-c4ccccc4)nc3c2=O)c(OC)c1", "note": "(stereo unspecified)", "survival": "inactive: 148%"},
      {"smiles": "Cc1ccc(CNC(=O)Cc2csc3ccccc23)cc1", "survival": "inactive: 94%"},
      {"smiles": "Oc1ccccc1-c1nnc(SCc2ccccc2)o1", "survival": "inactive: 103%"},
      {"smiles": "CCOC(=O)c1cccc(NC(=O)c2oc3c(c2C)-c2nn(CC)cc2CC3)c1", "survival": "inactive: 90%"},
      {"smiles": "Cc1c(Cl)cccc1-n1ncc(C(=O)NC2CCCCC2)c1C1CCN(C(=O)OC(C)(C)C)CC1", "survival": "inactive: 75%"},
      {"smiles": "COc1ccc(Br)cc1[C@@H]1Nc2ccc(C(=O)O)cc2[C@@H]2C=CC[C@@H]21", "survival": "inactive: 65%"},
      {"smiles": "CCOc1ccc(CCNC(=O)CSc2nnnn2-c2ccccc2)cc1OCC", "survival": "inactive: 129%"},
      {"smiles": "C#CCn1c(=O)n(-c2cccc(Cl)c2C)c(=O)c2c3c(sc21)CN(C(C)=O)CC3", "survival": "inactive: 81%"},
      {"smiles": "Cc1ccc(C)c(N2CCN(CCCNC(=O)c3cnn(-c4ccc(F)cc4)c3C3CCN(C(=O)OC(C)(C)C)CC3)CC2)c1", "survival": "inactive: 88%"},
      {"smiles": "CC(C)C(=O)Nc1nc2c(s1)CC(C(C)(C)C)CC2", "note": "(stereo unspecified)", "survival": "inactive: 118%"},
      {"smiles": "CCOc1ccc(CNC(=O)Cn2nc(C)c3c(C)n(-c4ccc(C)cc4)nc3c2=O)cc1", "survival": "inactive: 78%"},
      {"smiles": "COc1ccc(-c2cnc(C)o2)cc1S(=O)(=O)Nc1ccc(OC(F)(F)F)cc1", "survival": "inactive: 71%"},
      {"smiles": "Cc1ccc(C)c(CSc2nnc(C)n3c2cc2sccc23)c1", "survival": "inactive: 65%"},
      {"smiles": "O=C(CCS(=O)(=O)c1ccccc1)N(Cc1cccnc1)c1nc2ccc(F)cc2s1", "survival": "inactive: 124%"},
      {"smiles": "CC(=O)c1ccc(-n2c(CCC(=O)O)ccc2-c2cccs2)cc1", "survival": "inactive: 69%"},
      {"smiles": "CC1=C(C)CC(C(=O)Nc2ccc(NC(=O)NC3CCCCC3)cc2)C(C(=O)O)C1", "note": "(stereo unspecified)", "survival": "inactive: 97%"},
      {"smiles": "O=C(Cn1c(=O)nc(-c2ccccc2)c2ccccc21)N1CCN(c2ccc(F)cc2)CC1", "survival": "inactive: 83%"},
      {"smiles": "COc1cc(OC)c(NC2=C(c3ccc(C(F)(F)F)cc3)C(=O)c3ccccc32)cc1Cl", "survival": "inactive: 69%"},
      {"smiles": "COc1cc(NC(=O)C(Cc2ccccc2)NS(=O)(=O)c2cccs2)cc(OC)c1", "note": "(stereo unspecified)", "survival": "inactive: 124%"},
      {"smiles": "Cc1noc(/C=C/c2ccccc2F)c1S(=O)(=O)N1CCC(C(=O)NCC(C)c2ccccc2)CC1", "note": "(stereo unspecified)", "survival": "inactive: 74%"},
      {"smiles": "O=C(CS(=O)(=O)c1cccc2nsnc12)NCc1ccccc1", "survival": "inactive: 71%"},
      {"smiles": "OCCCn1c(-c2ccc(F)cc2)csc1=Nc1ccc(F)cc1", "survival": "active: 9%"},
      {"smiles": "CC(C)Oc1ccccc1NC(=O)CSc1nccn1C", "survival": "inactive: 73%"},
      {"smiles": "O=C(O)CSc1nc2ccc(NC(=O)COc3ccc(Cl)cc3)cc2s1", "survival": "inactive: 88%"},
      {"smiles": "Cc1ccc(-n2c(=O)c3c(c4cc(C)ccc4n3C)n(CC(=O)c3ccc(Cl)cc3)c2=O)cc1", "survival": "inactive: 135%"},
      {"smiles": "COC(=O)c1ccccc1NC(=O)c1nc(-c2ccc(Cl)cc2)n2c1CCCCC2", "survival": "inactive: 126%"},
      {"smiles": "CCOc1cccc(C(=O)Nc2cc(C)c(O)c(-c3nc4ncccc4o3)c2)c1", "survival": "inactive: 84%"},
      {"smiles": "Cc1ccc2c(=O)c(C(=O)c3ccc(F)cc3)cn(CC(=O)Nc3ccc4c(c3)OCCO4)c2n1", "survival": "inactive: 73%"},
      {"smiles": "Cc1ccc(NC(=O)c2ccc(CN3CC(=O)N4CCCCC4C3=O)cc2)c(C)c1", "note": "(stereo unspecified)", "survival": "inactive: 98%"},
      {"smiles": "COC(=O)c1ccc(NC(=O)CSc2nnc3c4ccccc4n(C(C)C)c3n2)cc1", "survival": "inactive: 67%"},
      {"smiles": "COc1cccc(Cc2nc3ccccc3nc2SCC(=O)N2CCCc3ccccc32)c1", "survival": "inactive: 129%"},
      {"smiles": "Cc1ccc(-c2nn(CC(=O)NCc3ccccc3)c3c2cnc2ccc(F)cc23)cc1C", "survival": "inactive: 59%"},
      {"smiles": "O=C(CSc1nccn1C1CCCC1)Nc1cc(C(F)(F)F)ccc1Cl", "survival": "inactive: 80%"},
      {"smiles": "CCOC(=O)c1c(NC(=O)c2cc(=O)c3cc(C)cc(C)c3o2)sc(C)c1C", "survival": "inactive: 91%"},
      {"smiles": "Cc1c(NC(=O)C(C)(C)Oc2ccc(Cl)cc2)cccc1-c1nc2ccccc2o1", "survival": "active: 1%"},
      {"smiles": "COc1ccc(OC)c(-n2c3c(cc(-c4nc(-c5ccc(Cl)cc5)cs4)c2=O)C(=O)CC(C)(C)C3)c1", "survival": "inactive: 76%"},
      {"smiles": "O=C(c1ccc2c(c1)N(Cc1ccccc1)C(=O)c1ccccc1S2(=O)=O)N1CCc2ccccc21", "survival": "inactive: 87%"},
      {"smiles": "CCCNC(=O)CN1C(=O)COc2ccc(S(=O)(=O)N3CCC(C)CC3)cc21", "survival": "inactive: 121%"},
      {"smiles": "COc1ccccc1CNC(=O)CSc1ccc(-c2sc(-c3ccccc3)nc2C)nn1", "survival": "inactive: 43%"},
      {"smiles": "Cc1cc(F)ccc1S(=O)(=O)Nc1ccc(O)c(Sc2ncn[nH]2)c1", "survival": "inactive: 110%"},
      {"smiles": "c1ccc(OCCSC2=NCCN2)cc1", "survival": "inactive: 117%"},
      {"smiles": "O=S(=O)(c1ccc(Cl)cc1)c1nc(-c2ccco2)oc1SCc1ccccc1F", "survival": "inactive: 80%"},
      {"smiles": "CCC(=O)N1CCc2cc(S(=O)(=O)NC(Cc3ccccc3)C(=O)Nc3ccccc3C)ccc21", "note": "(stereo unspecified)", "survival": "inactive: 115%"},
      {"smiles": "CCOc1ccc(OCC)c(NC(=O)c2cc3ccccn3n2)c1", "survival": "inactive: 85%"},
      {"smiles": "CN(C(=O)CSc1nnc(COc2ccccc2)o1)c1ccccc1", "survival": "inactive: 103%"},
      {"smiles": "Cc1nc(Nc2ccc(S(N)(=O)=O)cc2)oc1C", "survival": "inactive: 115%"},
      {"smiles": "CC1CCCN(CC(=O)Nc2ccc(C(=O)O)cc2)C1", "note": "(stereo unspecified)", "survival": "inactive: 105%"},
      {"smiles": "CC(=O)c1cccc(NS(=O)(=O)c2cc3c(cc2C)n(C)c(=O)c(=O)n3C)c1", "survival": "inactive: 92%"},
      {"smiles": "O=C(Nc1sc2c(c1C(=O)Nc1ccccc1)CCC2)c1ccc(Br)cc1", "survival": "inactive: 133%"}
    ]}
  ]
}
